# The list shows a part of the results.
# System: T1, Caupolican (Caup) homeodomain DNA-binding domain
# T1 sequence: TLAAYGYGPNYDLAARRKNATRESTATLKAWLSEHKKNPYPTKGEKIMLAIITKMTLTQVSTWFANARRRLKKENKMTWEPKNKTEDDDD
# Assay: PBM E-score (8-mer, recovered from the published 9-mer minima) (E-score (dimensionless, -0.5 to 0.5)); Drosophila protein; higher = stronger relative binding preference, active = 0.31 or more
# In short: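 Caup's homeodomain DNA-binding domain (residues 214-303) was made by in vitro transcription and translation and applied at 100 nM to custom-designed protein binding microarrays. Each value is an enrichment score that gives relative binding preference for a short DNA word, with higher meaning stronger. The 8-mer values were recovered from published 9-mer scores, each of which was the minimum of its two constituent 8-mer scores. A cutoff of 0.31 marks candidate sites.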
row,Sequence,PBM E-score
1,ACAGACGT,inactive: 0.154
2,GCCACCCC,inactive: -0.221
3,AATGGTTG,inactive: 0.0268
4,AATATTGG,inactive: 0.0704
5,CGGATGCC,inactive: -0.0989
6,AAAACGAA,inactive: 0.0391
7,AGCCCGTC,inactive: -0.219
8,GAACGGAA,inactive: -0.0137
9,CAAATGAG,inactive: -0.00325
10,ACCGGAAT,inactive: -0.0553
11,GATAGAGA,inactive: -0.0737
12,CGTTAGAC,inactive: -0.112
13,ATTCGCAC,inactive: -0.00832
14,CAAACTCG,inactive: -0.0882
15,AGGCCGCG,inactive: -0.201
16,AGTATGAG,inactive: 0.0814
17,ATCGAAAG,inactive: 0.0469
18,GGTGCACA,inactive: -0.0712
19,AAACATTT,inactive: 0.252
20,AAGACAGA,inactive: 0.12
21,AGGTGCGG,inactive: -0.136
22,TATATAGA,inactive: 0.158
23,CTTAAGGA,inactive: 0.00395
24,ACGTGGCG,inactive: -0.111

row,Sequence,PBM E-score
1,ATGCTCTC,inactive: 0.0532
2,GTTCGAAC,inactive: 0.159
3,ACCTCGCT,inactive: -0.0751
4,AGTCGAAG,inactive: -0.0241
5,ATACCCGC,inactive: 0.0153
6,CTACGGGA,inactive: -0.0503
7,CAACAGGA,inactive: 0.0881
8,AATAACAG,inactive: 0.241
9,AGGAACCC,inactive: -0.0815
10,ACCGCACT,inactive: -0.125
11,CCTATTTA,inactive: -0.0799
12,GCAAGTTA,inactive: 0.0766
13,GCTGCGAC,inactive: -0.133
14,CCCGTTGC,inactive: -0.134
15,CGCTCTTA,inactive: -0.0212
16,CTGACCCA,inactive: -0.11
17,GCGGCACC,inactive: -0.22
18,GCAGACGA,inactive: -0.00472
19,CCGTTAGA,inactive: -0.00338
20,CAACGTAG,inactive: 0.0374
21,ATACGACG,inactive: 0.13
22,TGTGCACA,inactive: 0.132
23,ATATTCCG,inactive: 0.0125
24,AAGTTAGC,inactive: 0.0975

row,Sequence,PBM E-score
1,CATAGTGC,inactive: 0.117
2,GGTTTGAA,inactive: 0.0279
3,CGCGGAGC,inactive: -0.249
4,GGGCTATA,inactive: -0.123
5,CGCAAGGA,inactive: -0.102
6,GTCCGAAA,inactive: 0.0444
7,ACACCCGT,inactive: 0.109
8,AGTGTGTC,inactive: 0.204
9,CCAGTCAG,inactive: -0.104
10,GCATGATA,inactive: 0.159
11,ATTAGAGA,inactive: 0.0176
12,CGAACAAG,inactive: 0.295
13,AAGGTGGT,inactive: 0.0307
14,ACGACAAT,inactive: 0.186
15,ACCACTAA,inactive: 0.15
16,AAGAGAAC,inactive: 0.0784
17,ATATGGGA,inactive: -0.00099
18,CCTAGCCA,inactive: -0.125
19,AAATTGAA,inactive: 0.116
20,GCACATTA,inactive: 0.107
21,AACTCGCA,inactive: 0.0477
22,AGGAGGGG,inactive: -0.228
23,CTCACGAA,inactive: 0.0184
24,AGCGGGTC,inactive: -0.215

row,Sequence,PBM E-score
1,GACAGAAA,inactive: 0.104
2,GACAGCAC,inactive: 0.0877
3,CCATGGAG,inactive: -0.0703
4,CAAAGAAG,inactive: -0.0488
5,CGAGAGTC,inactive: -0.123
6,AGTTGTAC,inactive: 0.308
7,AAGAACAG,inactive: 0.172
8,CGCAGCAG,inactive: -0.199
9,AGGCAGGA,≥ -0.0476
10,GTGCCGAA,inactive: -0.0996
11,ATCTGTCC,inactive: 0.114
12,CGGCTTAC,inactive: -0.0622
13,AAGGAAAT,inactive: 0.0386
14,ACTCCTCT,inactive: -0.00759
15,ACTGATAA,inactive: 0.119
16,CTGGGCAC,inactive: -0.168
17,CATACTAA,inactive: 0.167
18,CTATTCTC,inactive: 0.0382
19,TAGAGATA,inactive: 0.0621
20,CCGACGTC,inactive: -0.202
21,ATGTAGGG,inactive: 0.129
22,AACCCCGT,inactive: -0.12
23,ACACTTAA,inactive: 0.197
24,CTTGCTAC,inactive: 0.151

row,Sequence,PBM E-score
1,ACTGGATA,≥ 0.0929
2,AGTTAATG,inactive: 0.187
3,ACGTGGTC,inactive: 0.0208
4,TCTGCTAA,inactive: 0.0179
5,CCCACGCA,inactive: -0.21
6,ATTAATCC,inactive: 0.13
7,ACGTGGTA,inactive: 0.132
8,CAAAAAAG,inactive: 0.046
9,AAAGTATG,inactive: 0.124
10,CATCGCGC,inactive: -0.106
11,GCCTACGC,inactive: -0.053
12,CTCGCAAC,inactive: -0.00416
13,AATAATAG,inactive: 0.132
14,CTTGACGA,inactive: 0.0272
15,GATACCAA,inactive: 0.123
16,CGGGAGAG,inactive: -0.144
17,ACATTGCC,inactive: 0.105
18,CGAGTCGA,inactive: -0.00487
19,TCGTTTCA,inactive: 0.0308
20,AAACAGTC,inactive: -0.0421
21,CAGTATAA,inactive: 0.0774
22,GCCTAGAC,inactive: -0.11
23,GATACTCC,inactive: -0.017
24,AGCGAATC,inactive: 0.0333

row,Sequence,PBM E-score
1,GAGACACA,inactive: 0.167
2,AAAAACTA,inactive: 0.122
3,ACTTCAAC,inactive: 0.171
4,GTCGCCGA,inactive: -0.0224
5,GCAGTAAC,inactive: 0.0444
6,AACCCGTC,inactive: -0.0941
7,ATACTCTA,inactive: 0.092
8,CAGTAATG,inactive: 0.115
9,CGTGTGGA,inactive: -0.0862
10,TAGCCGAA,inactive: -0.0891
11,TACCGCTA,inactive: 0.068
12,TCACTAGA,inactive: 0.0014
13,CTTAGTCC,inactive: -0.0895
14,AGACACTC,inactive: -0.00058
15,AGAACCGC,inactive: -0.0708
16,AGTAACTA,inactive: 0.154
17,CAAATAAG,inactive: -0.0125
18,ACACCCAC,inactive: 0.0658
19,CCTCGGCC,inactive: -0.233
20,CGTTATAC,inactive: 0.0592
21,TTAAAGAA,inactive: 0.0808
